Assay results taken from the RNAGym collection of RNA variant scans (doi:10.7554/elife.90254).
Read counts are not given, so values of variants with three or more changes are uncertain.

B1: OR4K15 (parent)
chain: GUUAACGGUCAUAGGCCAUGGAAACUAGGAGCACCAUUUCGCUGCCAGUGAAGAAAUGAACAAAGAAAAUCUGGGCCAGGCAGGCAUCAAAAGAAAUAGUCUUGCGCUCAACCAGAAAGUCUGUAAUCAUUUUAAGGGUA

Variants of: B1
Assay: self-cleavage, relative activity (ratio to wild type); higher = more cleavage; in vitro, sequencing; the parent is a self-cleaving ribozyme

Variant | self-cleavage
A30G C45A U108A | 0.02
A30G A59G A91G A110G | 0.14
A30G A55G A64G A135G | 1.44
A27G A90U U108C | 0.01
U26C C40U A91G | 0.79
U26C G50U A60G | 1.07
A27G A63G U108C G115U U130A | 0
A30C A36C U38A A94U | 2.08
U26G A86G A96G U100A A118G | 0.31
G29A A64G A78U A111G | 0.03
A30G U87C A125U | 1.34
A27U U102A G138A | 0.63
G28A A36G U38C A95G U97C | 0.86
A30G G41C U102C C105G A114U | 0.01
A30G A63G U103C | 0.7
A27G G41A A66G A67G | 1.02
A30G A69G A86G A98C A114C | 0.07
A30G A36G U39C A62G A135U | 1.42
A30G A69G A82U | 0.42
U26G U43A U72G | 0.16
A27G A51G A56G A67G A78G A89G U108C U133C | 0.02

Variant | self-cleavage
A30G A68G A116G | 0.99
A27G A62G G74A | 0.18
A30G A67G A96C U130C | 0.64
A30G U37C C85A | 1.31
A30G A110U A116U U122C | 0.29
A30G A86G A96G | 1.77
U26C C40A A55G A63G A82U A98U U100C A126G | 0.52
G29A A82U U87C A95G U102A | 0.8
U26G A47G U49A A86G A111C | 0.03
U26G A27G A64U U72A | 0.27
A27U U43A A117G | 1.97
A30U A62G A64U A66C A67G A118G | 0.44
A30G C76U U127A | 0.15
A30G A59G A96U U122C | 1.45
A30G U43G A96G U100C | 2.33
A30U A54G C128A | 0.89
A30G A64G U102C U127C | 1.05
A27G A54G U72A G83A | 0.15
A30G A47U A92G U108A | 0.04
U26C U39C U49A U122C | 0.61
A30G C34U U57C U108A A116G A117G | 0.01

Variant | self-cleavage
A30G A91G A116G U124G | 0.34
A30G U72A C76U | 0.41
A30G U72C A116G | 0.24
A30G A33U U39C A126G | 0.94
A30G C45U A64G | 1.41
A27G G41U A89G | 0.82
A27G U38C A54G C71A | 0.25
A27G A59C A116G | 1.13
A27G A56G A90G C105U | 0.04
A30U A59U A68G U139C | 0.5
A30G U87G A89U | 1.11
A27G G41A A78U A96G | 0.42
A30G A67G A82G U127C | 0.37
A30G A52G U103C | 0.3
U26G U39A U49C A64G A67G U108C | 0
A30G A86G U103C | 0.85
G29A A63G A114G U120C | 0.06
A27G A52G U97C C105U A135U | 0.1
A27G A91G A110U | 0.67
A27G U39C A69G A89G A110U | 0.78
A27G G28U C76U | 0.11

Variant | self-cleavage
A30G A91G A118G | 0.33
A30G A59G A69C A91G U102A | 0.33
A27G C85G A89G U108C | 0.05
A27U A30G A33U A78U | 0.55
A30G A36C A117U | 0.94
G28A U43C U70C U100C | 1.2
A27U A33G A36G | 1.66
A30G A33U U49C U87A | 1.26
A30G A63U A92G | 1.25
A27G A118G U130C | 0.84
A27G A82G U120A | 0.58
A27G A47G A60G A63G U87C | 0.85
A30G U43C A96G A110G | 0.18
A30G A59U A64G | 1.46
A30G A64G A116G A126G | 0.38
A30G A47G A78U U132C | 0.47
A27G U37C G48A A67G U103C U108C A116G A117G U139C | 0
A27G U37C A63G A126G | 1.07
A30G U38A A54G A95G C121U | 2.34
A30G U70A A92G | 0.74
A30G A36G A94G A114G | 1.33
